B1: ABC723 (ABC723_HER2/hCD3_603, anti-HER2 x anti-hCD3 BsAb in ABC603 format) (bispecific antibody, human IgG1, kappa)
heavy 1: [about 120 residues not spelt out]ASTKGQVKPEAWLSHCPSPGPGHLQLVCHVSGFYPKPVWVMWMRGEQEQQGTQRGDILPSADGTWYLRATLEVAAGEAADLSCRVKHSSLEGQDIVLYWEGSDKTHTCPPCPAPELLGGPSVFLFPPKPKDTLMISRTPEVTCVVVDVSHEDPEVKFNWYVDGVEVHNAKTKPREEQYASTYRVVSVLTVLHQDWLNGKEYKCKVSNKALPAPIEKTISKAKGQPREPQVCTLPPSREEMTKNQVSLSCAVKGFYPSDIAVEWESNGQPENNYKTTPPVLDSDGSFFLVSKLTVDKSRWQQGNVFSCSVMHEALHNHYTQKSLSLSPGK
light 1: [about 200 residues not spelt out]
heavy 2: EVQLVESGGGLVQPGGSLRLSCAASGYSFTGYTMNWVRQAPGKGLEWVALINPYKGVSTYNQKFKDRFTISVDKSKNTAYLQMNSLRAEDTAVYYCARSGYYGDSDWYFDVWGQGTLVTVSSASTKGPSVFPLAPSSKSTSGGTAALGCLVKDYFPEPVTVSWNSGALTSGVHTFPAVLQSSGLYSLSSVVTVPSSSLGTQTYICNVNHKPSNTKVDKKV[human IgG1 Fc with changes not spelt out]
light 2: AIQMTQSPSSLSASVGDRVTITCRASQDIRNYLNWYQQKPGKAPKLLIYYTSRLESGVPSRFSGSGSGTDYTLTISSLQPEDFATYYCQQGNTLPWTFGQGTKVEIKRTVAAPSVFIFPPSDEQLKSGTASVVCLLNNFYPREAKVQWKVDNALQSGNSQESVTEQDSKDSTYSLSSTLTLSKADYEKHKVYACEVTHQGLSSPVTKSFNRGEC
B2: ABC724 (ABC724_HER2/hCD3_605, anti-HER2 x anti-hCD3 BsAb) (bispecific antibody, human IgG1, kappa)
heavy 1: [about 120 residues not spelt out]ASTKGQVKPEAWLSSCPSPGPGRLQLVCHVSGFYPKPVWVMWMRGEQEQQGTQLSEILPNANWTWYLRATLDVADGEAAGLSCRVKHSSLEGQDIILYWRGSGDKTHTCPPCPAPELLGGPSVFLFPPKPKDTLMISRTPEVTCVVVDVSHEDPEVKFNWYVDGVEVHNAKTKPREEQYASTYRVVSVLTVLHQDWLNGKEYKCKVSNKALPAPIEKTISKAKGQPREPQVCTLPPSREEMTKNQVSLSCAVKGFYPSDIAVEWESNGQPENNYKTTPPVLDSDGSFFLVSKLTVDKSRWQQGNVFSCSVMHEALHNHYTQKSLSLSPGK
light 1: [about 200 residues not spelt out]
heavy 2: EVQLVESGGGLVQPGGSLRLSCAASGYSFTGYTMNWVRQAPGKGLEWVALINPYKGVSTYNQKFKDRFTISVDKSKNTAYLQMNSLRAEDTAVYYCARSGYYGDSDWYFDVWGQGTLVTVSSASTKGPSVFPLAPSSKSTSGGTAALGCLVKDYFPEPVTVSWNSGALTSGVHTFPAVLQSSGLYSLSSVVTVPSSSLGTQTYICNVNHKPSNTKVDKKV[human IgG1 Fc with changes not spelt out]
light 2: B1 light 2
notes: also called ABC724_HER3/hCD3_605

Target: T1, hCD3 antigen on Jurkat clone E6-1 cells (human)
T1 construct: whole, on cells; also called human CD3; hCD3 (Jurkat cell)
Test: flow cytometry on Jurkat cells, FITC anti-human IgG Fc, median fluorescence, 4-parameter fit

Binder | EC50 [nM]
B1 | 3.35
B2 | 3.75
